# From the supplement of paper PMC10037445
# “And” between values parts separate entries of the source, which are not always exact repeats. Equal entries are not always repeated. Whole data set: some 2,900 compounds, median “NF-kB SEAP reporter activity, fold change vs agonist alone” near 0.99, cut for the highest 2% near 2.6. Some of the results follow.
# What was measured:
# RAW-Dual [1] = experiment: NF-kB SEAP reporter activity, fold change vs agonist alone; higher = enhanced NF-kB activity; conditions: library stock concentration (final ~1000-fold dilution): 10 mM, cytotoxicity flag (confluency mask): not cytotoxic
# Summary of the method: (§1)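 Cytotoxic wells were those whose IncuCyte confluency was below 70% of agonist controls in both mask sets. The cells were RAW-Dual macrophages at 50,000 cells/well in DMEM on 384-well plates, dosed with 50 nL of library stock by pin tool, stimulated with a PRR agonist 1 h later, and kept at 37 °C, 5% CO2 for 20 hours. IRF and NF-κB reporter activity, as fold change over agonist-alone wells, came from supernatant read by QuantiLuc luminescence and QuantiBlue absorbance, respectively.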
# RAW-Dual [2] = experiment: NF-kB SEAP reporter activity, fold change vs agonist alone; cytotoxicity flag (confluency mask): not cytotoxic; higher = enhanced NF-kB activity
# Summary of the method: as §1
# [3] = agonist: ODN 1826 (TLR9) 0.5 ug/mL
# [4] = agonist: Pam2CSK4 (TLR2/6) 0.1 ug/mL
# [5] = agonist: Pam3CSK4 (TLR2/1) 0.1 ug/mL
structure (smiles),measurement,setting,value
COc1ccc([C@@H]2CC(=O)c3c(O)cc(O[C@@H]4O[C@H](CO[C@@H]5O[C@@H](C)[C@H](O)[C@@H](O)[C@H]5O)[C@@H](O)[C@H](O)[C@H]4O)cc3O2)cc1O,NF-kB SEAP reporter activity,RAW-Dual [1]; agonist: Imiquimod (TLR7) […],0.983
same,NF-kB SEAP reporter activity,RAW-Dual [1]; agonist: MPLA (TLR4) […],1.04
COc1ccc([C@@H]2CC(=O)c3c(O)cc(O[C@@H]4O[C@H](CO[C@@H]5O[C@@H](C)[C@H](O)[C@@H](O)[C@H]5O)[C@@H](O)[C@H](O)[C@H]4O)cc3O2)cc1O (library stock concentration (final ~1000-fold dilution): 10 mM),NF-kB SEAP reporter activity,RAW-Dual [2]; agonist: LPS (TLR4) 0.1 ug/mL,0.857
same,NF-kB SEAP reporter activity,RAW-Dual [2]; [3],0.912
same,NF-kB SEAP reporter activity,RAW-Dual [2]; [4],0.775
same,NF-kB SEAP reporter activity,RAW-Dual [2]; [5],0.745
Cc1n[nH]c2ccc(-c3cncc(OCC(N)Cc4ccccc4)c3)cc12 (configuration not stated),NF-kB SEAP reporter activity,RAW-Dual [1]; agonist: Imiquimod (TLR7) […],0.904
same,NF-kB SEAP reporter activity,RAW-Dual [1]; agonist: MPLA (TLR4) […],0.967
Cc1n[nH]c2ccc(-c3cncc(OCC(N)Cc4ccccc4)c3)cc12 (configuration not stated) (library stock concentration (final ~1000-fold dilution): 10 mM),NF-kB SEAP reporter activity,RAW-Dual [2]; agonist: LPS (TLR4) 0.1 ug/mL,0.198
same,NF-kB SEAP reporter activity,RAW-Dual [2]; [3],0.962
same,NF-kB SEAP reporter activity,RAW-Dual [2]; [4],0.447
same,NF-kB SEAP reporter activity,RAW-Dual [2]; [5],1.01
O=C(/C=C/c1ccc(O)c(O)c1)O[C@@H](C(=O)O)[C@@H](OC(=O)/C=C/c1ccc(O)c(O)c1)C(=O)O (library stock concentration (final ~1000-fold dilution): 10 mM),NF-kB SEAP reporter activity,RAW-Dual [2]; agonist: LPS (TLR4) 0.1 ug/mL,1.06
same,NF-kB SEAP reporter activity,RAW-Dual [2]; [3],1.06
same,NF-kB SEAP reporter activity,RAW-Dual [2]; [4],1.17
same,NF-kB SEAP reporter activity,RAW-Dual [2]; [5],1.07
O=C(/C=C/c1ccc(O)c(O)c1)O[C@@H](C(=O)O)[C@@H](OC(=O)/C=C/c1ccc(O)c(O)c1)C(=O)O,NF-kB SEAP reporter activity,RAW-Dual [1]; agonist: Imiquimod (TLR7) […],0.78
same,NF-kB SEAP reporter activity,RAW-Dual [1]; agonist: MPLA (TLR4) […],1.01
Cc1ccc(-c2csc(NC(=O)c3ccccc3)n2)c(C)c1 (library stock concentration (final ~1000-fold dilution): 10 mM),NF-kB SEAP reporter activity,RAW-Dual [2]; agonist: LPS (TLR4) 0.1 ug/mL,1
same,NF-kB SEAP reporter activity,RAW-Dual [2]; [3],1.01
same,NF-kB SEAP reporter activity,RAW-Dual [2]; [4],0.9
same,NF-kB SEAP reporter activity,RAW-Dual [2]; [5],1.15
Cc1ccc(-c2csc(NC(=O)c3ccccc3)n2)c(C)c1,NF-kB SEAP reporter activity,RAW-Dual [1]; agonist: Imiquimod (TLR7) […],0.985
same,NF-kB SEAP reporter activity,RAW-Dual [1]; agonist: MPLA (TLR4) […],0.944
CC(=O)NC1=NN(C(C)=O)C(C)(c2ccccc2)S1 (configuration not stated),NF-kB SEAP reporter activity,RAW-Dual [1]; agonist: Imiquimod (TLR7) […],1.02
same,NF-kB SEAP reporter activity,RAW-Dual [1]; agonist: MPLA (TLR4) […],0.916
CC(=O)NC1=NN(C(C)=O)C(C)(c2ccccc2)S1 (configuration not stated) (library stock concentration (final ~1000-fold dilution): 10 mM),NF-kB SEAP reporter activity,RAW-Dual [2]; agonist: LPS (TLR4) 0.1 ug/mL,0.649
same,NF-kB SEAP reporter activity,RAW-Dual [2]; [3],0.779
same,NF-kB SEAP reporter activity,RAW-Dual [2]; [4],0.693
same,NF-kB SEAP reporter activity,RAW-Dual [2]; [5],0.899
NC(Cc1ccc(Cl)cc1)C(=O)O (configuration not stated) (library stock concentration (final ~1000-fold dilution): 10 mM),NF-kB SEAP reporter activity,RAW-Dual [2]; agonist: LPS (TLR4) 0.1 ug/mL,0.981
same,NF-kB SEAP reporter activity,RAW-Dual [2]; [3],1.05
same,NF-kB SEAP reporter activity,RAW-Dual [2]; [4],1.08
same,NF-kB SEAP reporter activity,RAW-Dual [2]; [5],1.04
NC(Cc1ccc(Cl)cc1)C(=O)O (configuration not stated),NF-kB SEAP reporter activity,RAW-Dual [1]; agonist: Imiquimod (TLR7) […],1.04
same,NF-kB SEAP reporter activity,RAW-Dual [1]; agonist: MPLA (TLR4) […],1.08
CC(C(=O)O)c1ccc2c(c1)Cc1cccnc1O2 (configuration not stated),NF-kB SEAP reporter activity,RAW-Dual [1]; agonist: Imiquimod (TLR7) […],0.936
same,NF-kB SEAP reporter activity,RAW-Dual [1]; agonist: MPLA (TLR4) […],1.01
CC(C(=O)O)c1ccc2c(c1)Cc1cccnc1O2 (configuration not stated) (library stock concentration (final ~1000-fold dilution): 10 mM),NF-kB SEAP reporter activity,RAW-Dual [2]; agonist: LPS (TLR4) 0.1 ug/mL,1.32
same,NF-kB SEAP reporter activity,RAW-Dual [2]; [3],1.03
same,NF-kB SEAP reporter activity,RAW-Dual [2]; [4],1.05
same,NF-kB SEAP reporter activity,RAW-Dual [2]; [5],1.03
O=C(N/N=C/c1cc(O)c(O)cc1O)c1cc2ccccc2cc1O,NF-kB SEAP reporter activity,RAW-Dual [1]; agonist: Imiquimod (TLR7) […],1.13
same,NF-kB SEAP reporter activity,RAW-Dual [1]; agonist: MPLA (TLR4) […],1.2
O=C(N/N=C/c1cc(O)c(O)cc1O)c1cc2ccccc2cc1O (library stock concentration (final ~1000-fold dilution): 10 mM),NF-kB SEAP reporter activity,RAW-Dual [2]; agonist: LPS (TLR4) 0.1 ug/mL,1.68
same,NF-kB SEAP reporter activity,RAW-Dual [2]; [3],1
same,NF-kB SEAP reporter activity,RAW-Dual [2]; [4],1.04
same,NF-kB SEAP reporter activity,RAW-Dual [2]; [5],0.872
CC(C)(C)C(=O)Oc1ccc(S(=O)(=O)Nc2ccccc2C(=O)NCC(=O)O)cc1 (library stock concentration (final ~1000-fold dilution): 10 mM),NF-kB SEAP reporter activity,RAW-Dual [2]; agonist: LPS (TLR4) 0.1 ug/mL,1.36 and 1.08
same,NF-kB SEAP reporter activity,RAW-Dual [2]; [3],0.906 and 0.939
same,NF-kB SEAP reporter activity,RAW-Dual [2]; [4],1.39 and 1
same,NF-kB SEAP reporter activity,RAW-Dual [2]; [5],0.652 and 1.02
CC(C)(C)C(=O)Oc1ccc(S(=O)(=O)Nc2ccccc2C(=O)NCC(=O)O)cc1,NF-kB SEAP reporter activity,RAW-Dual [1]; agonist: Imiquimod (TLR7) […],0.966
N=C(N)Nc1nc(CSCCC(=N)NS(N)(=O)=O)cs1,NF-kB SEAP reporter activity,RAW-Dual [1]; agonist: Imiquimod (TLR7) […],0.918
same,NF-kB SEAP reporter activity,RAW-Dual [1]; agonist: MPLA (TLR4) […],1
N=C(N)Nc1nc(CSCCC(=N)NS(N)(=O)=O)cs1 (library stock concentration (final ~1000-fold dilution): 10 mM),NF-kB SEAP reporter activity,RAW-Dual [2]; agonist: LPS (TLR4) 0.1 ug/mL,1.03
same,NF-kB SEAP reporter activity,RAW-Dual [2]; [3],1.06
same,NF-kB SEAP reporter activity,RAW-Dual [2]; [4],1.25
same,NF-kB SEAP reporter activity,RAW-Dual [2]; [5],1.09
COc1cc(O)c2c(c1)oc(=O)c1c3cc(O)c(O)cc3oc21,NF-kB SEAP reporter activity,RAW-Dual [1]; agonist: Imiquimod (TLR7) […],0.951
same,NF-kB SEAP reporter activity,RAW-Dual [1]; agonist: MPLA (TLR4) […],0.994
COc1cc(O)c2c(c1)oc(=O)c1c3cc(O)c(O)cc3oc21 (library stock concentration (final ~1000-fold dilution): 10 mM),NF-kB SEAP reporter activity,RAW-Dual [2]; agonist: LPS (TLR4) 0.1 ug/mL,0.879
same,NF-kB SEAP reporter activity,RAW-Dual [2]; [3],0.742
same,NF-kB SEAP reporter activity,RAW-Dual [2]; [4],0.672
same,NF-kB SEAP reporter activity,RAW-Dual [2]; [5],0.484
Cc1cc(C(N)=O)ccc1-n1c(CCC(=O)O)ccc1-c1ccc(-n2ccnc2)cc1,NF-kB SEAP reporter activity,RAW-Dual [1]; agonist: Imiquimod (TLR7) […],0.956
same,NF-kB SEAP reporter activity,RAW-Dual [1]; agonist: MPLA (TLR4) […],1.01
Cc1cc(C(N)=O)ccc1-n1c(CCC(=O)O)ccc1-c1ccc(-n2ccnc2)cc1 (library stock concentration (final ~1000-fold dilution): 10 mM),NF-kB SEAP reporter activity,RAW-Dual [2]; agonist: LPS (TLR4) 0.1 ug/mL,0.734
same,NF-kB SEAP reporter activity,RAW-Dual [2]; [3],0.995
same,NF-kB SEAP reporter activity,RAW-Dual [2]; [4],1.14
same,NF-kB SEAP reporter activity,RAW-Dual [2]; [5],0.822
O=C(/C=C/c1ccc2ccccc2n1)c1ccncc1,NF-kB SEAP reporter activity,RAW-Dual [1]; agonist: Imiquimod (TLR7) […],0.526
same,NF-kB SEAP reporter activity,RAW-Dual [1]; agonist: MPLA (TLR4) […],0.344
O=C(/C=C/c1ccc2ccccc2n1)c1ccncc1 (library stock concentration (final ~1000-fold dilution): 10 mM),NF-kB SEAP reporter activity,RAW-Dual [2]; agonist: LPS (TLR4) 0.1 ug/mL,0.306
same,NF-kB SEAP reporter activity,RAW-Dual [2]; [3],0.525
same,NF-kB SEAP reporter activity,RAW-Dual [2]; [4],0.287
same,NF-kB SEAP reporter activity,RAW-Dual [2]; [5],0.331
